Out of some 52,000 compounds screened, about 1,700 (3.3%) were called active. Rule as the data show it: active = survival mostly below about 52% (no sharp cut-off); inactive = mostly above about 56%. The list shows a part of the results.

The test system of the test is Wild type. Nature of the test: S. aureus survival, RN4220 and DeltatarO strains – OD600, teichoic acid synthesis inhibitors, primary screen (AID 463173). Particulars: S. aureus RN4220 wild type/DeltatarO growth, OD600, 18 h, active compounds read low, screened at 18.75 µg/mL (by protocol).
`CCOc1ccccc1NC(=O)CSc1c2c(nc3ccc(Cl)cc13)CCCC2`: the survival is inactive: 54%.

Turning to `CCOc1ccccc1NC(=O)c1nc(S(=O)(=O)Cc2cccc(C)c2)ncc1Cl`, the survival is inactive: 73%.

Turning to `CCc1c(-c2ccccc2)nc2ccccc2c1C(=O)NC(C)c1ccccc1` (stereo not drawn), the survival is inactive: 45%.

Take `CCOC(=O)C1CCCN(S(=O)(=O)c2cc(-c3onc(C)c3C)ccc2OC)C1` (stereo not drawn): the survival was inactive: 59%.

On to `Cc1[nH]c2ccc(C(=O)NCCCN3CCCCC3)cc2c1C`, for which the survival was inactive: 119%.

For the compound `CC1CCc2onc(C(=O)Nc3ccc(Cl)cc3)c2C1` (stereo not drawn), the survival was inactive: 59%.

For the compound `COc1ccc(-c2noc(CNC(=O)c3cc(OC)c(OC)c(OC)c3)n2)cc1`, the survival was inactive: 88%.

On to `Cc1nc2c(c(C)c1CCC(=O)NCc1ccc(F)cc1)c(=O)n(C)c(=O)n2C`, for which the survival is inactive: 77%.

With `CCCN(c1ccccc1F)S(=O)(=O)c1ccc2c(c1)C(C)(C)C(=O)N2C`, the survival was inactive: 71%.

Regarding `CC(=O)N1CCC(N(Cc2ccc(C)o2)C(=O)Nc2ccccc2F)CC1`, the survival is inactive: 85%.

In the case of `OCCN1C2=NCCCN2c2ccccc21`, the survival is inactive: 106%.

On to `CCOc1ccccc1NC(=O)Cn1nnc(C(=O)NCc2cccs2)c1N`, for which the survival was inactive: 79%.

Turning to `CCOC(=O)c1cc(OC(=O)c2ccccc2F)n(-c2ccccc2)n1`, the survival was inactive: 72%.

On to `COc1ccc(NCc2cc3cc4c(cc3n(CC(=O)Nc3ccc(C)cc3C)c2=O)OCO4)cc1`, for which the survival is inactive: 72%.

Take `CCOc1c(Br)cc(C2C=C(C(=O)O)Nc3ncnn32)cc1OC` (stereo not drawn): the survival was inactive: 78%.

`CC(=O)N1c2ccccc2C(=O)C1N1CCN(c2ccc(Cl)cc2)CC1` (stereo not drawn): the survival was inactive: 74%.

As to `O=C(NCc1ccccc1)c1cc(Sc2cccc(Cl)c2)nc2ccccc12`, the survival is inactive: 78%.

On to `Cc1ccc(-c2nc(S(=O)(=O)c3ccc(F)cc3)c(N3CCN(c4ccccc4)CC3)o2)cc1`, for which the survival is inactive: 89%.

Regarding `CC(C)C[C@H](N)c1nnc(SCc2ccc(Cl)cc2Cl)o1`, the survival is inactive: 11%.

As for `CC1=C(c2ccc(C(C)C)cc2)S(=O)(=O)N=C1N1CCN(c2ccccc2F)CC1`, the survival is inactive: 90%.

`Cc1ccccc1Nc1nn2c(=O)c3ccc(C(=O)NCC(C)c4ccccc4)cc3nc2s1` (stereo not drawn): the survival is inactive: 65%.

For `C/C(=N\NC(=O)COc1ccccc1)C1C(=O)c2ccccc2C1=O`, the survival was inactive: 107%.

For `CN1CCN(C(CNC(=O)C(=O)Nc2ccc(Cl)cc2)c2cccnc2)CC1` (stereo not drawn), the survival is inactive: 85%.

Turning to `Cc1ccc(C)c(N2CCN(C(=O)CCc3nnc4n(C)c(=O)c5ccccc5n34)CC2)c1`, the survival is inactive: 123%.

On to `CCOCCCNC(=O)c1c[nH]c2ccc(S(=O)(=O)N(C)c3ccc(Cl)cc3F)cc2c1=O`, for which the survival was inactive: 130%.

As for `NC(=O)c1nc(Nc2ccccc2)sc1NC(=O)c1c(F)cccc1F`, the survival is inactive: 83%.

Take `CCOC(=O)c1ccc(NC(=O)c2c(NCc3sccc3C)sc3c2CCC(C)C3)cc1` (stereo not drawn): the survival is inactive: 135%.

Turning to `CCOC(=O)c1cccnc1SCC(=O)N(CC)c1cccc(C)c1`, the survival was inactive: 70%.

In the case of `COc1ccc(F)cc1S(=O)(=O)NCC(c1ccco1)S(=O)(=O)c1cccs1` (stereo not drawn), the survival was inactive: 81%.

With `CC(C)(C)c1ccc(OCC(=O)Nc2ccc(C(=O)OC3CCCCC3)cc2)cc1`, the survival is inactive: 71%.

For the compound `CC(C)Cn1nc(NC(=O)c2cccc(Cl)c2)c2cc3ccccc3nc21`, the survival was inactive: 90%.

With `CCCCOc1cccc(C(=O)Nc2sc3c(c2C(=O)OCC)CCCC3)c1`, the survival is inactive: 72%.

For `CCC(c1nnnn1CCOC)N1CCN(c2nc3ccccc3s2)CC1` (stereo not drawn), the survival was inactive: 100%.

As for `Cc1cccc2c(=O)cc(CSc3ccccc3NC(=O)C(C)C)[nH]c12`, the survival was inactive: 89%.

Regarding `COc1cccc(NC(=O)CSc2nc(=O)n(Cc3cccnc3)c3c2CCC3)c1`, the survival is inactive: 65%.

Consider `Cc1ccc2nc3c(cc(C#N)c(=O)n3-c3nnc(SCc4ccc(F)cc4)s3)c(=O)n2c1`, for which the survival was inactive: 92%.

`Cc1ccc(Sc2ccc(N3CCCC(C(=O)Nc4ccc(F)c(Cl)c4)C3)nn2)cc1` (stereo not drawn): the survival was inactive: 71%.

As for `COc1ccc(CCNC(=O)CCCCn2c(=O)c3ccccc3n(Cc3cc(C)ccc3C)c2=O)cc1OC`, the survival was inactive: 92%.

As to `CCOc1ccc(CNC(=O)c2ccc3c(c2)c(C)c(C)n3C)cc1`, the survival is inactive: 94%.

Take `CCCN(CCC)C(=O)Cn1c(=O)n(-c2ccc(OC)cc2OC)c(=O)c2c3c(sc21)CCC3`: the survival is inactive: 84%.

In the case of `O=C(CN(Cc1ccco1)C(=O)Cn1nnc(-c2cccs2)n1)NCc1ccccc1`, the survival is inactive: 110%.

As to `COc1ccc(OCC(=O)Nc2ccc(-c3nc4cc(Cl)ccc4o3)cc2)cc1`, the survival was inactive: 159%.

Consider `CCOc1ccccc1NC(=O)Cn1c(=O)n(CC(=O)NCc2ccccc2Cl)c(=O)c2sccc21`, for which the survival is inactive: 153%.

As for `COc1ccccc1Nc1nc(NCC2CCCO2)c2ccccc2n1` (stereo not drawn), the survival was inactive: 105%.

In the case of `CCOc1ccc(-n2c(SCc3ccccc3)nc3c([nH]c4ccccc43)c2=O)cc1`, the survival is inactive: 73%.

`CCCn1c2ccccc2c2cnn(CC(=O)NCC3CCN(Cc4ccc(C)cc4)CC3)c(=O)c21`: the survival is active: -1%.

Take `Fc1ccc(-c2noc3ncnc(NCCc4ccc(Cl)cc4)c23)cc1`: the survival was inactive: 83%.

As for `COc1cccc(N2CC(NC(=O)c3cc4ccccc4o3)CC2=O)c1` (stereo not drawn), the survival is inactive: 69%.

On to `COc1ccc(Nc2cc(C)c3cc(NC(=O)c4ccccc4Cl)ccc3n2)cc1`, for which the survival is inactive: 69%.

As for `CC(C)c1ccc2c(c1)NC(c1ccc(F)cc1)=NC(c1cccs1)=N2`, the survival was inactive: 71%.

Take `CC(C)=C(C#N)c1nc2ccccc2s1`: the survival was inactive: 126%.

With `Cc1cc(C(F)F)n2ncc(C(=O)O)c2n1`, the survival is inactive: 92%.

On to `Cc1ccc(NC(=O)Nc2nnc(SCC(=O)N3CCCCC3)s2)cc1`, for which the survival is inactive: 77%.

Consider `Cc1cc(Nc2cccc(C(F)(F)F)c2)nc2ccc(NC(=O)Cc3ccc(Cl)cc3)cc12`, for which the survival was inactive: 78%.

`Cc1cccc(C(=O)NCCc2nc3ccccc3n2Cc2ccccc2Cl)c1`: the survival was inactive: 106%.

For `Cc1nc2ncnn2c(C)c1CCC(=O)N1CCN(c2ccc(F)cc2)CC1`, the survival was inactive: 72%.

For the compound `COc1cccc(CNC(=O)N2CCc3c(sc4c3CCCC4)C2c2ccc(F)cc2)c1` (stereo not drawn), the survival is inactive: 75%.

On to `Cc1cc(C)c(C#N)c(N2CCN(c3cccc(C)c3C)CC2)n1`, for which the survival was inactive: 109%.

Values taken from PubChem BioAssay AID463173 (ICCB-Longwood Screening Facility, Harvard Medical School, 2010).
